PubChem BioAssay AID1508623 (National Center for Advancing Translational Sciences (NCATS), 2021)
About 450 (0.94%) of roughly 48,000 compounds were called active. Inconclusive results, whose numbers are uncertain, are shown with a selection of clear calls. Calls come from the whole dose curve; as a rule, active = well fitted inhibition curve with a large enough effect; inconclusive = small, poorly fitted or top-dose-only effect; inactive = no such curve, though single readings can be large or run the other way. Potencies of inconclusive entries are doubtful fits and often do not repeat.

Experiment: Primary qHTS for Identification of Small Molecule Inhibitors of Huntingtin Promoter Activity; note: nearly all actives have a fitted effect of over 50% in size
Settings: HEK293 HTT promoter firefly luciferase reporter (activity 0% = vehicle and -100% = no light), 24 h; series mostly up to 57.5 µM
Outline: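 HEK293 luciferase promoter-reporter cells (2,500/well) plated 24 h, then compounds added at up to 57.5 uM final for 24 h at 37 °C. Firefly luminescence by Dual-Glo, normalized to vehicle (0%) and zero RLU (-100%).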
Potency is the fitted concentration of half-maximal effect; tags give direction and shape of the fitted curve.

Potency, inactive:
CCCSS/C(CCO)=C(\C)N(C=O)Cc1cnc(C)nc1N, Cc1ccc(CN2CCNCC2)cc1NC(=O)CNc1ccc(F)c(F)c1, CCCCOc1ccc(NC(=O)Cn2nnnc2-c2ccccc2F)cc1, CC(C)NC(=O)c1ccc(C=O)cc1, CO[C@H]1C(=O)[C@]2(C)[C@@H](OC)C[C@H]3OC[C@@]3(OC(C)=O)[C@H]2[C@H](OC(=O)c2ccccc2)[C@]2(O)C[C@H](OC(=O)[C@H](O)[C@@H](NC(=O)OC(C)(C)C)c3ccccc3)C(C)=C1C2(C)C, Cc1cc2ccccc2n1CCNC(=O)c1cccc(Cl)c1, Cc1ccc(N(CC(=O)Nc2ccc(C)c(F)c2)S(=O)(=O)c2c(C)n[nH]c2C)cc1, CCc1ccc(Sc2cc(C(=O)NC(C)CC)c3ccccc3n2)cc1 (stereo not drawn)

Potency, inconclusive:
CCN(CC)S(=O)(=O)c1nnc(NC(=O)c2ccc(C(C)C)cc2)s1 39.8 µM [inhibitor, single point], COc1ccc(C2=C(C)C(=O)N(Cc3ccc(C(=O)Nc4cc(C)ccc4C)cc3)S2(=O)=O)cc1 10 µM [inhibitor, partial curve, poor fit], Cc1cccc(N2CCN(CCCNC(=O)c3nnc(Cc4c(F)cccc4Cl)o3)CC2C)c1 (stereo not drawn) 25.1 µM [inhibitor, partial curve], O=C(COC(=O)c1cccc(NC(=O)c2ccc(Br)cc2)c1)c1ccc(Br)cc1 11.2 µM [inhibitor, partial curve, poor fit], COc1cccc(C(=O)Nc2ccc3nc(N4CCC(C)CC4)cc(C)c3c2)c1 39.8 µM [inhibitor, single point], CCOC(=O)c1[nH]c2c(c1Cc1ccccc1OC)C(=O)CC(c1ccc(OCC)cc1)C2 (stereo not drawn) 25.1 µM [inhibitor, partial curve, poor fit], Cc1ccc(S(=O)(=O)c2nc(S(C)(=O)=O)sc2NCc2ccccc2)cc1 28.2 µM [inhibitor, single point], COc1cc(NC(=O)Cn2nc(-c3ccc(C)c(C)c3)ccc2=O)cc(OC)c1 28.2 µM [inhibitor, single point], O=C(Cc1ccc(NC(=O)N2CCCCc3ccccc32)cc1)NCc1ccccc1 28.2 µM [inhibitor, partial curve, poor fit], COc1ccc(N(Cc2cccs2)C(=O)COc2ccc(C(C)C)cc2)cc1 39.8 µM [inhibitor, single point], CCOc1ccc(N2C(=O)N(Cc3c(F)cccc3Cl)c3ccccc3S2(=O)=O)cc1 12.6 µM [inhibitor, partial curve, poor fit], O=S(=O)(O)CCSSCCS(=O)(=O)O 9.68 µM [inhibitor, partial curve, poor fit], COc1cc2c(Nc3ccc(Cl)c(Cl)c3F)ncnc2cc1OCC1C[C@@H]2CN(C)C[C@H]2C1 4.32 µM [inhibitor, full curve], CC(C)(C)OC(=O)N1CCC(c2c(C(=O)Nc3ccc4c(c3)OCCO4)cnn2-c2ccccc2)CC1 25.1 µM [inhibitor, single point], CCOC(=O)c1oc2c(c1C)-c1nn(Cc3ccccc3Cl)cc1CC2 31.6 µM [inhibitor, partial curve, poor fit], Cc1ccc(C)c(NC(=O)C(=O)NCCc2csc3nc(-c4ccccc4C)nn23)c1 39.8 µM [inhibitor, partial curve, poor fit], COc1ccc(CNc2cc(-c3ccc(OC)cc3)nc3nncn23)cc1 28.2 µM [inhibitor, single point], O=C(CSc1nc2c(c(=O)[nH]1)CCCC2)Nc1ccc(Br)cc1 6.31 µM [inhibitor, partial curve], O=C(C1CCC(Cn2c(=O)c3sccc3n(Cc3cccc(F)c3)c2=O)CC1)N1CCCCC1 (stereo not drawn) 28.2 µM [inhibitor, single point], O=C(NCCc1ccccc1)C(=O)NCC(c1cccnc1)N1CCN(c2ccccc2F)CC1 (stereo not drawn) 12.6 µM [inhibitor, partial curve], COc1ccccc1Nc1nn2c(=O)c3ccc(C(=O)NCc4ccc(F)cc4)cc3nc2s1 2.82 µM [inhibitor, single point], COc1ccc(CCNC(=O)c2ccc(CS(=O)(=O)Cc3cccc(C)c3)o2)cc1OC 14.1 µM [inhibitor, partial curve], Cc1ccc(CNC(=O)C(=O)NCC(c2ccco2)S(=O)(=O)c2cccs2)cc1 (stereo not drawn) 39.8 µM [inhibitor, single point], COc1ccc(-c2n[nH]c3c2C(c2ccc(O)cc2)N(c2ccc(Br)cc2)C3=O)cc1 (stereo not drawn) 28.2 µM [inhibitor, single point], CSc1cccc(NC(=O)N2CCN(c3cc(-c4noc(C)n4)ccc3C)CC2)c1 39.8 µM [inhibitor, single point], CCOc1ccc(NC(=O)CSc2cn(CC(=O)N3CCCCCC3)c3ccccc23)cc1 39.8 µM [inhibitor, single point], CC(C)c1ccc(NC(=O)c2cc(S(=O)(=O)NCc3ccccc3Cl)ccc2F)cc1 20 µM [inhibitor, partial curve], CCOc1cc(C(=O)N2CCc3c([nH]c4ccccc34)C2c2ccccc2)cc(OCC)c1OCC (stereo not drawn) 15.8 µM [inhibitor, partial curve, poor fit], COc1ccc(C)cc1NC(=O)Cn1c(=O)ccc2cc(S(=O)(=O)N3CCCC3)ccc21 39.8 µM [inhibitor, single point], COc1cccc(NC(=O)c2cnn(-c3ccccc3)c2-n2cccc2)c1 31.6 µM [inhibitor, partial curve, poor fit]
